Source: patent US20130261137A1, “Methods, Compounds and Compositions Relating to Activating a Latent Virus” (ULC BUSINESS PLC, priority 2010, published 2013)

Test system: KSHV RTA in JSC-1 PYFP cells

Row | Compound | effect of inhibitor on KSHV RTA induction by 15026 (15026 0.8 μM, 40 h) | effect of inhibitor on KSHV RTA induction by 15026
1 | CC(C)[C@H](NC(=O)c1ccc2ccccc2n1)C(=O)N[C@@H](CC(=O)O)C(=O)COc1c(F)cccc1F [Q-VD-OPH] | no effect | –
2 | N#CC(=C(/N)Sc1ccccc1N)/C(C#N)=C(\N)Sc1ccccc1N [U0126] | – | reduced levels of RTA induction
3 | Nc1ncnc2c1ncn2[C@@H]1O[C@@H]2COP(O)(=S)O[C@H]2[C@H]1O (stereo partly shown) [Rp-cAMP] | no apparent effect | –
4 | O=C(NOC[C@H](O)CO)c1ccc(F)c(F)c1Nc1ccc(I)cc1F [PD0325901] | inhibited | –

Like-named read-outs stand apart in the source and are kept apart here.
